# Reference: ChEMBL document CHEMBL4888484, “Replenishing the malaria drug discovery pipeline: Screening and hit evaluation of the MMV Hit Generation Library 1 (HGL1) against asexual blood stage Plasmodium falciparum ,using a nano luciferase reporter read-out” (2022)
# Screen size: about 150,000 compounds; about 540 (0.36%) showed an effect of 50% or more. The list shows a part of the results.
# System: Plasmodium falciparum
# Test: Primary screen in NF54 nanoGlo assay, in single point, at 2uM, 72h; a lower Z score goes with more inhibition
# Format: functional, Erythrocyte
# Settings: timepoint 72 hour
SMILES,% Inhibition [%],Z score
CNC(=O)[C@H]1CCN(c2nc(C3CCCCC3)ns2)C1,-16,1.82
Cc1cc(N2CCC[C@@]3(C=Cc4ccccc4O3)C2)n2ncnc2n1,-8,1.36
Cc1c(-c2cnn(C)c2)nc(N)c(C#N)c1[C@H]1CCOC(C)(C)C1,-8,1.41
CC(C)NC(=O)N1CC(C(=O)NC(C)c2ccccc2)CCC1c1ccc(F)cc1 (stereo not given),-4,0.63
CC(C)(C)c1cc(CNC(=O)c2c[nH]c(=O)c(Cl)c2)[nH]n1,-9,1
O=C1NC2(CCN(Cc3cccc(F)c3)CC2)N2CCCC[C@@H]12,-9,1.73
Nc1nnnn1CC(=O)N(Cc1ccncc1)C1CCCCC1,-7,1
OCCN(Cc1ccccc1OC1CC1)C1CC1,-5,0.91
COc1ccc(Cl)cc1C(C)NCC1CCN(S(C)(=O)=O)C1 (stereo not given),1,-0.08
CN(C)c1ccc(-c2nc(-c3nnn4c3CO[C@H](c3ccccc3Cl)C4)no2)cc1,-2,0.39
c1ccc(CO[C@H]2CCN(c3cc(-n4ccnc4)ncn3)C2)nc1,0,0.01
CO[C@H]1CN(C)C[C@@H]1NC(=O)c1c[nH]c2c(F)cccc2c1=O,-25,2.23
CN(CC1OCCc2sccc21)C(=O)CCC1CCCO1 (stereo not given),-9,1.06
COc1ccc(CN2C(=O)c3ccccc3C2=O)cc1C(=O)N1CC(C)OC(C)C1 (stereo not given),-8,0.98
CC1CC(C)CN(C(=O)Cc2csc(NC(=O)c3ccco3)n2)C1 (stereo not given),-13,1.27
Cc1nc2cc(C(=O)N3CCC[C@@]3(C)C(=O)O)ccc2s1,3,-0.39
O=C(CNCC1CCC1)Nc1c(Cl)cccc1Cl,-6,0.74
C[C@H](N)C1(c2nc(C(C)(C)c3ccc(Cl)cc3)no2)CCOCC1,4,-0.84
Cc1ccc(NC(=O)CC(=N)NOC(=O)Nc2cccc(C)c2)cc1,-1,0.23
CCCc1cc(C(=O)OCC)nn1C1CCN(S(=O)(=O)c2ccccc2C)CC1,-14,2.44
Cc1ccc2c(c1)NC(=O)c1cc(S(=O)(=O)N(C)C)c(N3CCCCCC3)cc1O2,0,-0.02
Cc1nc2c(cc1C(=O)Nc1cccc(Cl)c1)c(=O)[nH]c(=O)n2Cc1ccccc1,-18,2.55

SMILES,% Inhibition [%],Z score
Cc1cccc(C[C@H](C)NC(=O)CCc2cn[nH]c2)n1,1,-0.14
O=C(NCc1cccc(-c2nnc[nH]2)c1)NCC1CC1c1ccccc1 (stereo not given),-7,1.22
CC(C)CCNC(=O)Cn1cccc1-c1nc(-c2ccc3c(c2)OCO3)no1,-3,0.33
CCOc1ccccc1CCCNC(=O)c1cc(C)n2nc(C)cc2n1,12,-1.63
NC(Cc1ccccc1)=NOC[C@@H]1CNC(=O)C1,-5,0.93
O=C(NCCOCC1CC1)c1c[nH]nc1-c1ccccn1,-3,0.59
CCN(C(=O)CCc1c(C)[nH]c(=O)c(C#N)c1C)C1CCCC1,-3,0.5
CC(C)n1cnc2ccc(-c3noc(-c4ccco4)n3)cc21,-18,3.1
COCCN1CC2(CCC1=O)CCN(C(=O)c1cnc(C3CC3)nc1)CC2,-17,2.72
Cc1ccc(-c2nn(-c3ccccc3)cc2C(=O)N2CCO[C@@H](CC(=O)O)C2)o1,-7,0.93
Cc1cnc([C@H]2CCN(C(=O)NC(C)C)C2)n1Cc1ccccc1,-4,0.59
CC(C)N(CCN(C)C)C(=O)c1cnc(-c2cnn(C)c2)s1,-3,0.34
COc1cc(Cl)ccc1CNC(=O)N1CC(NC(=O)C2CCC2)C1,6,-1.02
COCC(NC(=O)N1CCCCC(N2CCCC2)C1)c1ccco1 (stereo not given),2,-0.19
O=C(O)c1ccc(C(F)(F)F)nc1C(F)(F)F,-16,1.61
COc1ccc(NC(=O)[C@@H]2Cc3[nH]cnc3C3(CCCC3)N2)cc1Cl,-4,0.61
CC(NCC(=O)NC(C)(C#N)C1CC1)c1cc2ccccc2s1 (stereo not given),-1,0.11
CC1CN(S(=O)(=O)CCc2ccccc2F)CC2(CCOC2C)O1 (stereo not given),4,-0.46
Cc1ccc(N(C(=O)c2ccc3c(c2)OCO3)C(=O)N2CCCCC2)cc1,-3,0.51
O=C1c2ccccc2C(=O)N1c1cc(-c2c[nH]c3ccccc23)n(-c2ccccc2)n1,-6,0.69
COc1cccc(NC(=O)c2ccccc2C(=O)Nc2cccc(OC)c2)c1,-11,1.43
CN(C)c1ncc(CN2C[C@H](c3cnn(C)c3)C3(CCOCC3)C2)n1C,-2,0.29

SMILES,% Inhibition [%],Z score
CN(C)c1ccc(C2=Nc3ncnn3/C2=N/Cc2ccccc2)cc1,-10,1.36
CC(C)OC(=O)C[C@H]1CCCN(C(=O)Cc2ccc3c(c2)OCO3)C1,-3,0.56
CCc1nnc(-c2ccc3ccn(CC(=O)Nc4ccc5c(c4)OCO5)c3c2)o1,-3,0.37
CC1CCCC1Nc1nccc(C(F)(F)F)n1 (stereo not given),-7,0.86
C[C@H](NC(=O)c1c[nH]nn1)c1ccc2c(c1)OCCO2,-14,1.17
CCOC1CC2(CCN(C(=O)CCCc3ccc4c(c3)CC(=O)N4)C2)C1 (stereo not given),-12,2.28
CCNC(=O)N1CC(S(=O)(=O)C2CCCCC2)C1,-18,2.27
CCN(CC)CCNC(=O)c1cnn(-c2nccc(-c3ccc4c(c3)OCO4)n2)c1-c1ccco1,-15,2.96
CCCn1cnc2c1c(=O)n(CCC(C)C)c(=O)n2-c1ccc(C(C)C)cc1,-5,0.61
O=C1CN(C(=O)[C@H]2CCn3c(cnc3C(F)(F)F)C2)CCN1CC1CCCC1,-4,0.55
CCc1ccc(CNc2ccc(F)c(N3CCCS3(=O)=O)c2)o1,-1,0.12
C=C(C)CNC(=O)NCc1ncoc1C,5,-0.78
CC(C)=CCC[C@@]1(C)CCC(=O)N(Cc2cccc(C(=O)N(C)C)c2)C1,-1,0.14
Cc1nn(CC(=O)OC(C)C)c(C)c1CN1CCN(c2ccc(CN(C)C)cn2)CC1,-11,1.06
N#Cc1nccnc1Nc1ccc(OCCO)cc1,-13,2.53
C#CCO[C@@H](C)C(=O)N1CCN(c2nnc(C)c(C)c2C(N)=O)CC1,3,-0.43
CCCS(=O)(=O)NC1CCN(C(=O)C2=NN(c3ccc(C)cc3)C(=O)CN2)CC1,13,-1.98
Cn1c(O)c(CCNc2cc([C@H]3CCOC3)ncn2)cnc1=O,-11,1.93
CO[C@@H](C(=O)N1CCCN2CCC[C@H]2C1)c1ccccc1,-5,0.88
Cc1cc(NCc2ccsc2)nc(N)n1,16,-2.24
CC1CN(CC(=O)Nc2ccccc2Br)C1c1ccccc1 (stereo not given),-1,0.11
C=CCn1cc(CNC[C@H](C)n2nc(C)cc2C)c(C)n1,-1,0.17

SMILES,% Inhibition [%],Z score
CC(C)(C)n1nc(CC(N)=O)nc1-c1ccccc1-c1nnn[nH]1,1,-0.29
CCc1nc2cc(N[C@@H](C)C(=O)N3CCOCC3)ccc2o1,2,-0.23
c1nsnc1N1CCC(COc2cc3c(nn2)CCC3)CC1,3,-0.59
CCNC(=O)[C@@H]1CCCN1Cc1cc(=O)c2cccc(F)c2[nH]1,-5,0.73
CCOCCCNC(N)=NCc1ccc(COC(C)C)cc1,-1,0.21
O=S(=O)(CC1CCOCC1)N1CCN(c2ccccc2Cl)CC1,-1,0.08
c1ccc(C2CCN(c3ccnc4ccsc34)CC2)cc1,-10,1.6
CO[C@@H]1COC[C@H]1n1cc(CNC(=O)CCCC(F)(F)F)nn1,-4,0.56
O=C([C@H]1CC(=O)N(c2ccc(F)cc2)C1)N1CCNCC1,-7,0.9
Cc1ccc(Nc2nn(CN(C)CC(=O)N[C@H]3CCS(=O)(=O)C3)c(=S)s2)cc1Cl,-18,3.13
CCC(NC(=O)c1ccn(C)c1C)[C@H]1C[C@H](O)C1 (stereo not given in full),-1,0.09
Cc1ncccc1OC[C@H]1CCCN1C(=O)c1cnn(C)c1C,-11,1.45
O=C(Nc1cc(C(F)(F)F)c[nH]c1=O)C1CCOCC1,-2,0.36
CC(C)(C(=O)N1C[C@@H]2CC[C@H]1CN(Cc1ccccn1)C2)c1ccccc1,-1,0.15
CCN(C(=O)CN1CCCS1(=O)=O)[C@@H](C)Cc1ccsc1,-16,2.67
Cc1cc(C)nc(NC2CCCCC2)n1,-11,1.11
Cc1ccc(C(=O)c2cnc3cc4c(cc3c2N2CCC(C(N)=O)CC2)OCO4)cc1C,-12,1.58
CCCc1ncncc1C(=O)N1C[C@@H](C)[C@@](C)(O)C1,-25,2.21
COc1ccc(CCc2nc3nccc(-c4ccc5c(c4)OCO5)n3n2)cc1OC,-9,1.19
